In all, about 310,000 compounds went through this assay and about 2,200 (0.71%) showed an effect of 50% or more. Effects have a minus sign here. This is one part of the list.
Target: human ether-à-go-go-related gene (hERG) potassium channel (human, UniProt Q12809)
Assay: primary screen, population patch clamp on CHO cells stably expressing hERG

Sequence of human ether-à-go-go-related gene (hERG) potassium channel (Q12809 whole entry, looked up): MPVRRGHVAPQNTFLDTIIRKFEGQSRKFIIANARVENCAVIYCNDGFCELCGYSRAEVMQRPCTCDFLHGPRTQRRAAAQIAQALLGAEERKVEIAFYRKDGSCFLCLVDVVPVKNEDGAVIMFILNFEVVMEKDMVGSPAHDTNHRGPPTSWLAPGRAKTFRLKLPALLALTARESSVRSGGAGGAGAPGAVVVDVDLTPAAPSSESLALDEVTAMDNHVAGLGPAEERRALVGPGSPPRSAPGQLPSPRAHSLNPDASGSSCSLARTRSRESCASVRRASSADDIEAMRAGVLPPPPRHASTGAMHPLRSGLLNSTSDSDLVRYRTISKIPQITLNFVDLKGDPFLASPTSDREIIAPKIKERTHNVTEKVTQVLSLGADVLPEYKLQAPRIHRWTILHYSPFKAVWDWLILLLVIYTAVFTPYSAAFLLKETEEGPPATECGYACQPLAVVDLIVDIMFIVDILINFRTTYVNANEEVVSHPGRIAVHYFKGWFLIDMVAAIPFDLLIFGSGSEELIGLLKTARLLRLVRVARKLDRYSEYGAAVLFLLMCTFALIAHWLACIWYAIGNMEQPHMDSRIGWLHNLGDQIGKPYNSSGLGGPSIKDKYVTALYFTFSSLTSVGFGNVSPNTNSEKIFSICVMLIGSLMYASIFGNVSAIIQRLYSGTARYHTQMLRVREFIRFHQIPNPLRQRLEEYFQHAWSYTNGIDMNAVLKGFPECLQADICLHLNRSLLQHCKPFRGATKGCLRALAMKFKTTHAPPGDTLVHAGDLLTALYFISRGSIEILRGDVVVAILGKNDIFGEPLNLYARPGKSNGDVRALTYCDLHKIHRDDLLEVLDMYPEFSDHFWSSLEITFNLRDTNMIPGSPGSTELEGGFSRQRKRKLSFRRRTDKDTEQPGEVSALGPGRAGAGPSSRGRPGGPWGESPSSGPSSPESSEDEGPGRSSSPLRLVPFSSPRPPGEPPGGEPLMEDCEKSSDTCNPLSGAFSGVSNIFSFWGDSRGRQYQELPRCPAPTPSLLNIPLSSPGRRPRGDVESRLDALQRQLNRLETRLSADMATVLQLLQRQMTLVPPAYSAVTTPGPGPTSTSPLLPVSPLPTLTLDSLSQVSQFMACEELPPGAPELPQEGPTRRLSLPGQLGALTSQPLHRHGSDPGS

Row | Compound | hERG current change (%, negative = inhibition) at 1uM
1 | FC(F)(F)c1cc(-c2ccccn2)nc2cc(-c3ccccc3)nn12 | 16.2%
2 | Cc1ccc(C(=O)OCc2nnc(-c3ccccc3)o2)cc1S(=O)(=O)N1CCOCC1 | 5.51%
3 | Cl.Fc1ccc(Nc2ncnc3sc4c(c23)CCC4)cc1 | 1.46%
4 | CCOC(=O)Nc1ccc(S(=O)(=O)Nn2cnnc2)cc1 | 5.84%
5 | Cc1cn2nc(N)c3ccccc3c2n1 | -2.63%
6 | CCOc1ccc(-c2c(C(=O)N/N=C/c3sccc3C)nnn2-c2nonc2N)cc1 | 14.8%
7 | O=C(Nc1cnc2sccn2c1=O)c1ccccc1Cl | 10.7%
8 | CC(C)(C)C(=O)NNC(=O)C1CC1(c1ccccc1)c1ccccc1 (stereo not drawn) | 11.3%
9 | O=C(CCC(=O)c1ccc(F)cc1)NCc1ccccc1C(F)(F)F | 22.2%
10 | COc1ccc(C(CNC(=O)c2cc3ccccc3cc2O)N2CCOCC2)cc1 (stereo not drawn) | 5.01%
11 | CC(=O)c1ccc(NC(=O)Nc2ccncc2)cc1 | 13.5%
12 | CC1(C(=O)NC2CCCCC2)CCC(=O)N1Cc1cccnc1 (stereo not drawn) | 14.3%
13 | Cc1ccc(COc2ccsc2C(=O)NN)cc1 | 12.8%
14 | CSc1ncc(C(=O)O)c(C)n1 | -6.2%
15 | CCOC(=O)C(Oc1ccc2c(-c3ccccc3)cc(=O)oc2c1C)c1ccccc1 (stereo not drawn) | 11%
16 | Cc1ccn2c(c1)nc(=O)c1cc(S(=O)(=O)N3CCC(C)CC3)ccc12 | -2.56%
17 | O=C(COc1ccc(Br)cc1Cl)N1CCN(c2ncccn2)CC1 | -16.8%
18 | COC(=O)c1ccc(NC(=O)COc2ccc(S(=O)(=O)NC(C)(C)C)cc2)cc1 | 10.4%
19 | COCCCNC(=O)/C(C#N)=C/c1c(N2CCN(C)CC2)nc2c(C)cccn2c1=O | 14%

Row | Compound | hERG current change (%, negative = inhibition) at 1uM
20 | COc1ccc(-c2nc(N)n[nH]2)cc1 | 17.8%
21 | Cc1cc(NC(=O)c2c(Cl)c(C)nn2C)no1 | 14.3%
22 | COC(=O)c1ccccc1OCCOCCOc1cccc2ccc(C)nc12 | -6.64%
23 | COc1cccc(CNC(=O)c2ccccc2-c2ccccc2C(=O)O)c1 | 16%
24 | COc1ccc(NC(=O)CSc2nnc(NC(=O)c3ccco3)s2)cc1 | 14.3%
25 | O=C1CCN(Cc2ccc([N+](=O)[O-])cc2)CCN1[C@H](CO)c1ccccc1 | -5.61%
26 | CC1CN(C(=O)c2ccc(CNS(=O)(=O)c3cccc(C(F)(F)F)c3)cc2)CC(C)O1 (stereo not drawn) | 13%
27 | CC(=O)NCCNC(=O)CNC(=O)c1ccc(Cl)cc1 | 8.38%
28 | CC(=O)Nc1ccc(S(=O)(=O)N2CC3(C)CC2CC(C)(C)C3)cc1 (stereo not drawn) | 11.6%
29 | COC(=O)c1ccc2c(=O)n(Cc3ccco3)c(SCC(=O)Nc3ccccc3Cl)nc2c1 | -1.19%
30 | CCOc1c(CNCc2ccc(C(=O)O)cc2)cccc1OC.Cl | 3.09%
31 | N#Cc1c(NC(=O)CSc2nnc(-c3ccncc3)n2CC2CCCO2)sc2c1CCCC2 (stereo not drawn) | -15%
32 | Nc1ccc(N2CCCCC2)c(S(=O)(=O)Nc2ccc(Cl)cc2)c1 | 7.39%
33 | Cc1cccc(NC(=O)c2sc(-c3ccccc3)nc2-c2ccc([N+](=O)[O-])cc2)c1 | 3.75%
34 | CC(Sc1ccc(Cl)cc1)C(=O)Nc1ccc2c(c1)OCO2 (stereo not drawn) | 11.7%
35 | O=C(NCC1CCCO1)c1cccc(S(=O)(=O)N2CCOCC2)c1 (stereo not drawn) | 20.6%
36 | Cc1cc(C)cc(N(C(=O)C2CCCC2)C2C=CS(=O)(=O)C2)c1 (stereo not drawn) | -22.1%
37 | CC(=O)NC1C(=O)SC1(C)C (stereo not drawn) | 19.9%
38 | O=c1[nH]c2ccccc2n2c(=S)[nH]nc12 | 12.4%

Row | Compound | hERG current change (%, negative = inhibition) at 1uM
39 | COc1cc(OC)cc(C(=O)NCC(=O)N2CCN(c3ccc(O)cc3)CC2)c1 | 12.8%
40 | COc1ccc(C(=O)NCCC2=CCCCC2)cc1 | 3.5%
41 | Cc1cccc(NS(=O)(=O)c2cc3c(cc2C)n(C)c(=O)c(=O)n3C)c1 | 0.0515%
42 | C/C(=N/OC(=O)c1c(-c2ccccc2Cl)noc1C)c1cnccn1 | 8.98%
43 | COc1ccc(S(=O)(=O)N2CCCCC2)cc1Br | 3.21%
44 | CN1/C(=C\C(=O)c2ccco2)c2ccccc2CC1(C)C | -10.9%
45 | CCC(=O)Nc1cccc(NC(=O)c2ccc(Br)cc2)c1 | 11.8%
46 | COc1ccc(-c2csc(N3CCC(c4ccccc4)CC3)n2)cc1 | 17.6%
47 | O=C(c1cc2ccccc2o1)N1CCN=C1SCc1cccc(F)c1 | 9.3%
48 | Cc1ccc(C(=O)CSc2nnc3ccccn23)c(C)c1 | 7.33%
49 | CCc1nnc(NC(=O)CSc2nc3ccc(OC)cc3[nH]2)s1 | 3.65%
50 | CCc1ccc(OCCCC(=O)Nc2ccc(N3CCCCC3)cc2)cc1 | 9.79%
51 | COc1ccc(N(C(C)C(=O)N/N=C/c2cc(Br)c(C)o2)S(C)(=O)=O)cc1 (stereo not drawn) | -0.97%
52 | CCCC/C(C)=N/NC(=O)c1cn(-c2ccccc2)nc1-c1ccccc1 | 22.3%
53 | CC1(C)C(=O)OC(c2cccn2-c2ccc([N+](=O)[O-])cc2)C(C)(C)C1=O (stereo not drawn) | 9.3%
54 | CC1CCCCN1S(=O)(=O)c1ccc(N(C(=O)c2cnccn2)C(C(=O)NC2CCCC2)c2cccs2)cc1 (stereo not drawn) | 9.31%
55 | COCC(=O)Nc1c(C(=O)Nc2ccc3c(c2)OCCO3)oc2ccccc12 | 9.11%
56 | O=C(COc1cc2oc(=O)c3c(c2cc1Cl)CCC3)NCCCN1CCCC1=O | -3.47%
57 | Cc1ccc(NC(=O)CN(C)S(=O)(=O)c2ccc3c(c2)n(C)c(=O)c(=O)n3C)cc1 | 15.9%
